Results published in the supplement of paper PMC11417369.
± gives the standard deviation of the averaged measurements. Some of the results follow.

These sequences were tested on PfAP2-G AP2 domain (GST-tagged) (assay: gcPBM binding intensity (ln(normalized median fluorescence intensity)); higher = stronger DNA binding).
Summary of the method: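 Binding of GST-tagged P. falciparum DNA-binding domains, expressed in E. coli and used at about 25 μg on average, was carried out for 1 h in 1× PBS containing 1% milk, 0.2 mg/ml BSA, 0.5% salmon testes DNA and 0.03% Triton X-100. The target was an Agilent 4 × 180k array of primer-extended double-stranded 36-bp intergenic genomic probes plus negative controls, read with Alexa488 anti-GST antibody at 488 nm. Binding intensity is the highest Masliner-normalised natural-log median intensity across replicate spots of either probe orientation.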

| Sequence | gcPBM binding intensity (ln) |
| --- | --- |
| ACGGGTCAATATATGCGTACTTATTTAAATAATTAA [XGTACX_site1518] | 11.5 ± 1.1 |
| AATAATATAGATTGTACACACAAAATGGGAAAAAAA [CACACA_site1886] | 11.4 ± 0.83 |
| ATAAATGGAAACAAAAGTACTAAAAAAAAAAAATAA [XGTACX_site1510] | 11.1 ± 0.76 |
| AAAAAAAAAAAAGATACACACAAAAATGAATATATA [CACACA_site2099] | 9.93 ± 0.12 |
| ATATATATATATAACTGTACTTATATATACATTTTA [XGTACX_site8605] | 11.2 ± 0.93 |
| ATATATATATATATATGTACATATATATATAATTTT [XGTACX_site4146] | 11.2 ± 0.73 |
| TTTTATCACATTATTGCACACACATAAAGAAAAAAA [CACACA_site8922] | 10.3 ± 0.43 |
| ATCAAGCACCAACACACACACACACCCCCACCCACA [CACACA_site370] | 11 ± 0.48 |
| TAAATAAATAAAAAAACACACATATATATATATATA [CACACA_site4029] | 10.3 ± 0.87 |
| ATATAATAAAATGACACACGCATATATATATATATA [CACACA_site2789] | 10.1 ± 0.26 |
| TTATATTTATTTATTTGTACATATTTTTTTTTATAT [XGTACX_site1669] | 11.2 ± 0.67 |
| TTTCTTTTTAAATATATACACACCGTGGGTACATAT [CACACA_site9102] | 11.4 ± 1 |
| ATTAATATTCTATATGCATGTGAACCATGGTATATA [TGCATGCA_site430] | 10.1 ± 0.15 |
| TCATATCTTTTGAGCACACATATATATATATAAAGG [CACACA_site3338] | 10.3 ± 0.27 |
| ATAAAATATTAATTTTAAATTAATCAATATATATAA [GTGCAC_negctrl_site474] | 9.63 ± 0.071 |
| TATGTGTTTATTTGGTGTACATACTAATAAATATAC [XGTACX_site1682] | 11.4 ± 0.82 |
| CCTAAATTATATTATGCACACTTAAAAATATATTTA [CACACA_site5861] | 10.1 ± 0.25 |
| AGGCTCAAATCTAGGTGTACCATTATCGTTGTATCT [XGTACX_site4730] | 11.1 ± 0.69 |
| ATTTTTTCTTATAATGCATGTAGAAAACCGTACAGC [TGCATGCA_site57] | 11 ± 0.71 |
| ATATCACATATATATATATATATATATATATATATA [XGTACX_negctrl_site463] | 9.83 ± 0.4 |
| AAAATATAAATTCATGTGCACATATATATTTTGTTA [GTGCAC_site9782] | 10.23 ± 0.078 |
| AGGAAAAAATCGAGTAGTACACATTTAGAAATATAA [XGTACX_site8019] | 11.5 ± 0.9 |

| Sequence | gcPBM binding intensity (ln) |
| --- | --- |
| TATATACATATATACACACACATATATTATATATAT [CACACA_site275] | 9.955 ± 0.035 |
| GTATGTATATTTATCTGTACATATTTATGTATTCTT [XGTACX_site2112] | 11.2 ± 0.64 |
| AACAAGGCCCGGTACTGTACATTTTTTCATAACATT [XGTACX_site6134] | 11.2 ± 0.47 |
| GAAAATAAAAAATATGAACACACATATATAACAAAA [CACACA_site7975] | 9.97 ± 0.12 |
| TCCTAATATATGTATGCACACACAATATATACATAT [CACACA_site9111] | 10.2 ± 0.19 |
| AAAAAAATTAAACATACACACGTTACTATTTTTATA [CACACA_site5009] | 9.83 ± 0.014 |
| TATAAATATAAAAGGAGTACAAATATATATATATAT [XGTACX_site1386] | 11.5 ± 0.99 |
| AGTTATAATAAAAAATGTACGTATTATCATTAAGAA [XGTACX_site4244] | 11.4 ± 0.76 |
| TTTTTTTTTATAGCTAAACACACATAAGAATATATG [CACACA_site8282] | 10.1 ± 0.085 |
| TTTCATTCTGGTATCACACATTTATTTTCTAGTTTA [CACACA_site4286] | 10.215 ± 0.007 |
| AAAAAAAAAAAAAACACACATACACATATATTTTTA [CACACA_site3893] | 10 ± 0.16 |
| AAAATTGATATATGCACACATATATATATTAAATAT [CACACA_site763] | 9.76 ± 0.028 |
| GGAACTTTTGGAGGTGCATGCGGAGCAATCTTTTCA [TGCATGCA_site454] | 9.855 ± 0.092 |
| TTTATGTAGGAACTAACACACATTGTAAGATTCAGA [CACACA_site1998] | 9.985 ± 0.064 |
| CCCCTTAATTAAAGGAGTACTATTTGTGAATAATAT [XGTACX_site4715] | 11.6 ± 0.94 |
| TTATTAATTTATAAATGTACGAATTTTTTATTTAAC [XGTACX_site7605] | 11 ± 0.69 |
| CATATCAATAATATCACACATATATGTGATTTTATT [CACACA_site5053] | 9.625 ± 0.035 |
| TTTAATATTAATAATTGTACATTTTCATAAATACGC [XGTACX_site2837] | 11 ± 0.54 |
| TATTAATAATTAAGTTGTACATTAATTAATATACTG [XGTACX_site6994] | 11.1 ± 0.54 |
| TTTAAACCTTAATATTGTACGCAAAAAAAAAAAGAA [XGTACX_site3757] | 11.6 ± 1 |
| ATATGCAGAGACTGTTTGCACTTTTTTATTTTATGT [GTGCAC_site9695] | 10.19 ± 0.035 |
| TGAAAAAATATAATTTGTACATATCAGGCAAAAATG [XGTACX_site1824] | 10.9 ± 0.45 |
